# According to a collection of fitness landscapes (doi:10.1038/s41467-024-54723-y):
# In all, about 18,000 sequences were measured (“TetR repression strength (sort-seq, GFP reporter)”: median about 0.23, highest 2% from about 0.68 on). This is one part of the list.
# Target: TetR (class B, Tn10) (UniProt P04483)
# Test: TetR repression strength (sort-seq, GFP reporter) (relative to tetO2 = 1); higher = stronger repression
# Settings: E. coli
# In short: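 Repression strength is the top bin index plus one minus the read-weighted mean bin, relative to the unaltered operator's value. A low-copy library in E. coli SIG10-MAX randomized eight operator positions between a constitutive promoter and sfGFP, with TetR expressed constitutively; cells grew 5 h at 37 °C in LB with 50 µg/mL chloramphenicol and 10^6 were FACS-sorted into 13 bins that were each Illumina-sequenced. Three independent transformations were averaged, keeping only members with ≥30 reads in all replicates and CV ≤0.5.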
# UniProt P04483, sequence (P04483 whole entry): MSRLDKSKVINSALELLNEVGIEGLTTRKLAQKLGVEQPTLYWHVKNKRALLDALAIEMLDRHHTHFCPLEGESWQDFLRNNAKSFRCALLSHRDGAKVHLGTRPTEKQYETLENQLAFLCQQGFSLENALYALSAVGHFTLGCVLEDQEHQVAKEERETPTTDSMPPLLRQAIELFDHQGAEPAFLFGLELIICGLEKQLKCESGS
row,Sequence,TetR repression strength
1,TCCCCTACAGTGCAGGAGA,0.333
2,TCCCCAAAAGTCATGGAGA,0
3,TCCCGATTAGTTCGAGAGA,0.0912
4,TCCCAGGAAGTTAACGAGA,0.091
5,TCCCACTGAGTAGAGGAGA,0.138
6,TCCCATAAAGTGGCCGAGA,0.228
7,TCCCTTTTAGTTATGGAGA,0.293
8,TCCCAGGGAGTGCGAGAGA,0.203
9,TCCCTCGCAGTGATCGAGA,0.218
10,TCCCTGTCAGTCAGCGAGA,0.489
11,TCCCCACAAGTACATGAGA,0.184
12,TCCCGCTTAGTACGGGAGA,0.194
13,TCCCTGCGAGTGTCCGAGA,0.184
14,TCCCGACTAGTGGAGGAGA,0.292
15,TCCCGGGGAGTCCGTGAGA,0.302
16,TCCCCGCCAGTCCATGAGA,0.387
17,TCCCGGGTAGTTTTCGAGA,0.137
18,TCCCGGGAAGTGATGGAGA,0.283
19,TCCCGTGTAGTACGGGAGA,0.146

row,Sequence,TetR repression strength
1,TCCCCACTAGTCCGTGAGA,0.279
2,TCCCCAAGAGTAACGGAGA,0.257
3,TCCCTTTCAGTTAGGGAGA,0.239
4,TCCCGGAGAGTGTACGAGA,0.0216
5,TCCCACCTAGTGGCCGAGA,0.416
6,TCCCGTTTAGTTAGTGAGA,0.162
7,TCCCGCAGAGTGCACGAGA,0.155
8,TCCCGCGAAGTTTAAGAGA,0.207
9,TCCCACCGAGTAGGTGAGA,0.178
10,TCCCTGTCAGTGTAGGAGA,0.0999
11,TCCCGTATAGTTCGTGAGA,0.245
12,TCCCGTGGAGTGTAAGAGA,0.172
13,TCCCGAATAGTGGATGAGA,0.339
14,TCCCTCTAAGTTCCGGAGA,0.207
15,TCCCTAACAGTAAAGGAGA,0.475
16,TCCCGGCTAGTGGTGGAGA,0.219
17,TCCCCTTGAGTTGCCGAGA,0.247
18,TCCCCAGGAGTCGAGGAGA,0.164
19,TCCCGATAAGTTGGGGAGA,0.211

row,Sequence,TetR repression strength
1,TCCCATTCAGTGGCGGAGA,0.444
2,TCCCGGGTAGTTAGGGAGA,0.293
3,TCCCTTTCAGTGTTAGAGA,0.459
4,TCCCTGTAAGTTCTTGAGA,0.207
5,TCCCTAACAGTCGGCGAGA,0.163
6,TCCCACTAAGTCTGCGAGA,0.321
7,TCCCCAGTAGTCGCTGAGA,0.311
8,TCCCGGCGAGTAAAAGAGA,0.101
9,TCCCAAAGAGTGGACGAGA,0.218
10,TCCCAGTTAGTTCACGAGA,0.132
11,TCCCACCAAGTATTTGAGA,0.149
12,TCCCTTACAGTCGGGGAGA,0.125
13,TCCCACGTAGTGAGAGAGA,0.164
14,TCCCCTTTAGTTCTTGAGA,0.47
15,TCCCTATAAGTGTCGGAGA,0.113
16,TCCCGGTGAGTGGTAGAGA,0.176
17,TCCCGGGAAGTAGCCGAGA,0.345
18,TCCCTCGGAGTGCCGGAGA,0.204
